Experimental data reported in PubChem BioAssay AID1259411 (Chemical Carcinogenesis Research Information System (CCRIS), 2018).
Entries after “also recorded” stand apart in the source; their conditions may differ. Some entries of the source have several records that differ or are many. The list is limited to them. No rule for the calls is given here. An entry can have further records. Values given together differ, and nothing given here explains why; they may come from other doses, times, organisms or constructs than stated.

Test system: rodent carcinogenicity bioassays, tumor incidence
Experiment: CCRIS carcinogenicity studies
Settings: Species: Rat, Strain/Sex: Sprague-Dawley/Female (50/Group), Route: Oral, Dose: 0, 2, 10, 50 ppb in diet, continuous exposure from conception through PND 21, followed by control diet to 2 yr
Description: The CCRIS database contains chemical records with carcinogenicity, mutagenicity, tumor promotion, and tumor inhibition test results. It was developed by the National Cancer Institute (NCI). Data are derived from studies cited in primary journals, current awareness tools, NCI reports, and other sources. Test results have been reviewed by experts in carcinogenesis and mutagenesis.
CCRIS provides historical information from the years 1985 - 2011. It is no longer updated.
This is an archive assay for CCRIS carcinogenicity studies.

SMILES: C#C[C@]1(O)CC[C@H]2[C@@H]3CCc4cc(O)ccc4[C@H]3CC[C@@]21C
- carcinogen call: inactive; negative (authors describe as equivocal evidence based on epithelial neoplasms (; also recorded: inactive; negative (authors describe as equivocal evidence based on stromal polyp (1/52, 7
